# Measurements taken from the RNAGym collection of RNA variant scans (doi:10.1101/gad.245936.114).
# Variants at the floor of the assay are shown more often than the library holds them.
# B1: tRNA (parent)
# chain: CUCUCGGUAGCCAAGUUGGUUUAAGGCGCAAGACUUUAAUUUAUCACUACGAAAUCUUGAGAUCGGGCGUUCGACUCGCCCCCGGGAGAUUUUUUCCUCGAGCAA
# Variants of: B1
# Assay: nonsense suppression (GFP-seq) (ratio to wild type); higher = more function; SUP4oc tRNA, yeast GFP reporter sort-seq
# In short: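 Sorted GFP/RFP bins of yeast were each Illumina-sequenced with a phred ≥30 cutoff; the cells held a genome-integrated ochre-suppressor tRNA variant from a library with ~3% random mutations, a galactose-driven GFP ochre reporter, and RFP. Culture was in raffinose/galactose medium containing 80 mg/L adenine. Nonsense suppression, termed GFPSEQ, is the median GFP/RFP of the bins weighted by each variant's estimated cell share per bin, relative to the unmutated parent tRNA, for variants reaching ≥100 reads and ≥30 cells.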
row,Variant,nonsense suppression
1,C64G G66U U76G,≤ 0.026
2,C64G G67U,≤ 0.026
3,C64G G69C,≤ 0.026
4,C64G G73A C79A,≤ 0.026
5,C64G G86C,≤ 0.026
6,C64G G88A,≤ 0.026
7,C64U,≤ 0.026
8,C64U A74G,≤ 0.026
9,C64U A89G,≤ 0.026
10,C64U C72A,≤ 0.026
11,C64U C72A A87G,≤ 0.026
12,C64U C82G C83G,≤ 0.026
13,C64U C83A A87G,≤ 0.026
14,C64U C83U,≤ 0.026
15,C64U G65A C72A,≤ 0.026
16,C64U G65U G86U,≤ 0.026
17,C64U G67C A74G G85C,≤ 0.026
18,C64U G67U,≤ 0.026
19,C64U G67U G78C,≤ 0.026
20,C64U G73U A89C,≤ 0.026
21,C64U U70G,≤ 0.026
22,C64U U76C,≤ 0.026
23,G65A A89C,≤ 0.026
24,G65A C77G,≤ 0.026

row,Variant,nonsense suppression
1,G65A C80G,≤ 0.026
2,G65A G67A A87U,≤ 0.026
3,G65A G67C,≤ 0.026
4,G65A G69A,≤ 0.026
5,G65A G69A C80U,≤ 0.026
6,G65A G73C A74C,≤ 0.026
7,G65A G78A,0.0493
8,G65A G78U,≤ 0.026
9,G65A G85C A87C,≤ 0.026
10,G65A G86A,≤ 0.026
11,G65A U70A,≤ 0.026
12,G65A U70C,≤ 0.026
13,G65C A74C C75U,≤ 0.026
14,G65C C72A G73U G86U,≤ 0.026
15,G65C C72G,≤ 0.026
16,G65C C72U A89C,≤ 0.026
17,G65C C79G C83U G88A,≤ 0.026
18,G65C C80U,≤ 0.026
19,G65C C81G,1.06
20,G65C C82G,≤ 0.026
21,G65C G66C,≤ 0.026
22,G65C G66C U76C,0.793
23,G65C G67A,≤ 0.026
24,G65C G67A G69A,≤ 0.026

row,Variant,nonsense suppression
1,G65C G67C,≤ 0.026
2,G65C G73C,≤ 0.026
3,G65C G78A,≤ 0.026
4,G65C G78A C79G,≤ 0.026
5,G65C G86C,≤ 0.026
6,G65C G86U,≤ 0.026
7,G65C G88U,≤ 0.026
8,G65C U70A C77U,≤ 0.026
9,G65C U71G,≤ 0.026
10,G65C U76G,≤ 0.026
11,G65U C68A,≤ 0.026
12,G65U C68U,≤ 0.026
13,G65U C72G,≤ 0.026
14,G65U C82A,≤ 0.026
15,G65U G66U A74U,≤ 0.026
16,G65U G69A,≤ 0.026
17,G65U G84U,≤ 0.026
18,G65U U70G U76G C79A,≤ 0.026
19,G66A A89C,≤ 0.026
20,G66A A89U,≤ 0.026
21,G66A C68U U76G,≤ 0.026
22,G66A C72G,≤ 0.026
23,G66A C82A,≤ 0.026
24,G66A G67A U70C C79G G84U,≤ 0.026

row,Variant,nonsense suppression
1,G66A G73A,0.182
2,G66A G78A,0.0402
3,G66A G84A,≤ 0.026
4,G66A G84C,≤ 0.026
5,G66A G84C G85U,≤ 0.026
6,G66A G86C A87C,≤ 0.026
7,G66A G88C,≤ 0.026
8,G66A U71A,≤ 0.026
9,G66A U71G,≤ 0.026
10,G66C A87U,≤ 0.026
11,G66C A89C,≤ 0.026
12,G66C C77A C79G,≤ 0.026
13,G66C C79G,≤ 0.026
14,G66C C82U,≤ 0.026
15,G66C G67C,≤ 0.026
16,G66C G69A U71C A74C A89G,≤ 0.026
17,G66C G69U,≤ 0.026
18,G66C G85C,≤ 0.026
19,G66C U71G,≤ 0.026
20,G66C U71G C82A,≤ 0.026
21,G66C U71G C83G,≤ 0.026
22,G66U A74C G85C,≤ 0.026
23,G66U C72A G85C,≤ 0.026
24,G66U C79G,≤ 0.026

row,Variant,nonsense suppression
1,G66U C79U G86A,≤ 0.026
2,G66U C82A,≤ 0.026
3,G66U G69C G88U,≤ 0.026
4,G66U G78C,≤ 0.026
5,G66U G85A,≤ 0.026
6,G66U U71G,≤ 0.026
7,G66U U76A,≤ 0.026
8,G66U U76A G84U,≤ 0.026
9,G66U U76C,≤ 0.026
10,G67A,0.188
11,G67A A87C,≤ 0.026
12,G67A A89G,≤ 0.026
13,G67A C77G,≤ 0.026
14,G67A C79G A87G,≤ 0.026
15,G67A C82A G88U,≤ 0.026
16,G67A C83A,≤ 0.026
17,G67A G73A,≤ 0.026
18,G67A G73C,≤ 0.026
19,G67A G78A,≤ 0.026
20,G67A G78U C83A,≤ 0.026
21,G67A G86C,≤ 0.026
22,G67A G88C,≤ 0.026
23,G67A U70C C81G,≤ 0.026
24,G67A U71C,≤ 0.026

row,Variant,nonsense suppression
1,G67A U76A G85U,≤ 0.026
2,G67C,≤ 0.026
3,G67C A89C,≤ 0.026
4,G67C C72A,≤ 0.026
5,G67C C80G,≤ 0.026
6,G67C C81G,≤ 0.026
7,G67C G69A A74C,≤ 0.026
8,G67C G78C,≤ 0.026
9,G67C G84A G86U G88C,≤ 0.026
10,G67C G84C,≤ 0.026
11,G67C U76G G86A,≤ 0.026
12,G67U,≤ 0.026
13,G67U A87G,≤ 0.026
14,G67U C77G,≤ 0.026
15,G67U C79U,≤ 0.026
16,G67U C81U C83A,≤ 0.026
17,G67U G78A,≤ 0.026
18,G67U G84C,≤ 0.026
19,G67U G86C,≤ 0.026
20,G67U G88A,≤ 0.026
21,G67U G88C,≤ 0.026
22,G67U G88U,≤ 0.026
23,G67U U70C,≤ 0.026
24,G67U U71A,≤ 0.026

row,Variant,nonsense suppression
1,C68A,≤ 0.026
2,C68A C72U,≤ 0.026
3,C68A C77A,≤ 0.026
4,C68A C82A,≤ 0.026
5,C68A C82U,≤ 0.026
6,C68A G69A,≤ 0.026
7,C68A G69C C79G,≤ 0.026
8,C68A G69C U71G G85A,≤ 0.026
9,C68A G69U U76A C81G,≤ 0.026
10,C68A G84A,≤ 0.026
11,C68A U71C C79A,≤ 0.026
12,C68A U71G,≤ 0.026
13,C68G,≤ 0.026
14,C68G C80A,≤ 0.026
15,C68G C83A,≤ 0.026
16,C68G G69U U71C,≤ 0.026
17,C68G G85C,≤ 0.026
18,C68G G88A,≤ 0.026
19,C68G G88C,≤ 0.026
20,C68G U71G G84A,≤ 0.026
21,C68G U76G C82G,≤ 0.026
22,C68U,1.05
23,C68U C77G,≤ 0.026
